PubChem BioAssay AID1346428 (National Center for Advancing Translational Sciences (NCATS), 2018)
About 1,200 (2.5%) of roughly 48,000 compounds were called active. Not shown: some 2% with an inconclusive outcome.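 Rule for the calls: active = activation of at least 60% and not above a set upper limit (about 1 call in 100 departs from these limits); inconclusive = activation of 40% to 60%, or above that upper limit; inactive = activation under 40%.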 The list shows a part of the results.

The molecules below were run against Probable G-protein coupled receptor 32 (Homo sapiens) (UniProt O75388) (assay: qHTS for Agonists of Human Resolvin D1 Receptor DRV1). Details: CHO-K1 GPR32 beta-arrestin PathHunter luminescence, 90 min; at 76.9 µM; active compounds read high; zero percent set by DMSO-only wells.
Sequence of UniProt O75388 (O75388 whole entry, looked up, the tested form may be a part): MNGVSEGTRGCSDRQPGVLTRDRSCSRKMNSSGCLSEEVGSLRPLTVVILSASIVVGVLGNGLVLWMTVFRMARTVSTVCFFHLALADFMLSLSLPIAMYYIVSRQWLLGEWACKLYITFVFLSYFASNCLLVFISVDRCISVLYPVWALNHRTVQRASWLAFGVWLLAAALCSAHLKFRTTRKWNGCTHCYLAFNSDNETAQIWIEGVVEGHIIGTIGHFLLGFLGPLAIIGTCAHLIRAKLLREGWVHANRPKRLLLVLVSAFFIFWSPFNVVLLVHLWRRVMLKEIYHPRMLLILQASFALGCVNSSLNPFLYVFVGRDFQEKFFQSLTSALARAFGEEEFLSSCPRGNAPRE
In short: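 GPR32 activation in stably transfected CHO-K1 cells, detected as beta-arrestin recruitment by enzyme-fragment complementation. Compound exposure: 90 min, 37 °C.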
Note: 0% is about no effect.

Row | Structure (SMILES) | activation
1 | CCc1ccc(OCc2nc(-c3ccc(-n4cccc4)cc3)no2)cc1 | inactive: 3.31%
2 | Cc1ccc(C)c(Cn2c3ccccc3c3cnn(CC(=O)N4CCCCC4)c(=O)c32)c1 | inactive: -6.06%
3 | CCCN1C(C(=O)c2ccccc2)=C(OC(=O)c2ccc(F)cc2)c2ccccc2S1(=O)=O | inactive: -53.5%
4 | CCOc1ccc(NC(=O)Cn2c(CCC(=O)O)ccc2-c2ccc(Cl)cc2)cc1 | inactive: -14.5%
5 | CC(C)c1ccc(C2=CC(c3cccc(Cl)c3)n3ncnc3N2)cc1 (centres undefined) | active: 73.7%
6 | Cc1ccc(NC(=O)CCS(=O)(=O)c2cccc3nonc23)c(C)c1 | inactive: -6.39%
7 | COc1ccc(Cl)cc1NC(=O)c1cc(S(=O)(=O)N2CCc3ccccc32)cn1C | inactive: -5.87%
8 | Cc1nn(CCC(=O)NC(C)C)c(=O)c2nn(-c3ccccc3)c(C)c12 | inactive: 4.55%
9 | COc1cc2c(C(=O)N3CCN(c4cccc(C)c4)C(C)C3)cn(CC(C)C)c(=O)c2cc1OC (centres undefined) | inactive: 0.0592%
10 | Cc1cccc(-n2c(=O)c3ccccc3n(Cc3ccccc3C#N)c2=O)c1 | inactive: -10.4%
11 | O=C(CSc1nc2c([nH]c3ccccc32)c(=O)n1-c1cccc(Cl)c1)N1CCc2ccccc21 | inactive: 9.87%
12 | CCc1nnc(NC(=O)c2nc(S(C)(=O)=O)ncc2Cl)s1 | inactive: 41.7%
13 | Cc1ccc2nc(NCc3ccccc3Cl)c3nnnn3c2c1 | inactive: -5.49%
14 | COc1cccc(Cc2nc3ccccc3nc2SCC(=O)N2CCCCC2C)c1 (centres undefined) | inactive: -6.24%
15 | COc1cccc(C(=O)CN2CCN(S(=O)(=O)c3ccc(Cl)cc3)CC2)c1 | inactive: -39.2%
16 | CC(C)(C)c1ccc(C(=O)CCCCl)cc1 | inactive: 12.7%
17 | CCOc1ccccc1NC(=O)c1sc2nc3c(cc2c1N)CN(Cc1ccccc1)CC3 | inactive: -25.8%
18 | O=C(CN1C(=O)CSc2ccc(S(=O)(=O)N3CCCCC3)cc21)NCc1ccc(F)cc1Cl | inactive: 12.4%
19 | O=C(NCc1ccco1)c1ccc2c(c1)N(Cc1ccc(F)cc1)C(=O)c1ccccc1S2=O (centres undefined) | inactive: -2.88%
20 | COc1cc(NC(=O)CCc2c(C)n(C)c3cc(-c4ccccc4C)nn3c2=O)cc(OC)c1OC | inactive: -8.7%
21 | COc1cc2ccccc2cc1C(=O)Nc1ccc2oc(-c3cc(Br)ccc3Cl)nc2c1 | inactive: -2.99%
22 | CCCOC(=O)C(C)n1nnc2sc(-c3ccccc3)cc2c1=O (centres undefined) | inactive: 1.27%
23 | Cc1ccn2c(Nc3ccc4c(c3)OCO4)c(-c3ccc(O)cc3)nc2c1 | inactive: -4.92%
24 | CCCCN1CCCC1C(=O)Nc1c(C)cc(C)cc1C (centres undefined) | inactive: -20.5%
